Test results reported in the supplement of paper PMC8728848.
Some of the results follow.

Assays:
Assay in all cases: glycan array binding signal (z-score within array); higher = stronger binding
Settings in all cases: glycan notation: IUPAC condensed, linker removed
[1] = target: Man(a1-3)[Man(a1-6)]Man(a1-6)[Man(a1-3)]Man
Summary of the method: (§1)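 Arrays were curated from the Consortium for Functional Glycomics database, 3228 in total, and kept only where the protein sequence was available. Binding is expressed as a within-array Z-score. This score was averaged across arrays of the same protein sequence at different concentrations or buffers and across linkers, and negative values can be read as non-binding.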

[2] = target: Man(a1-3)[Man(a1-6)]Man(a1-6)[Man(a1-3)]Man(b1-4)GlcNAc(b1-4)GlcNAc
Summary of the method: as §1

[3] = target: Man(a1-3)[Man(a1-6)]Man(b1-4)GlcNAc(b1-4)GlcNAc
Summary of the method: as §1

[4] = target: Man(a1-3)[Man(a1-6)]Man(b1-4)GlcNAc(b1-4)[Fuc(a1-6)]GlcNAc
Summary of the method: as §1

[5] = target: Man(a1-6)Man
Summary of the method: as §1

[6] = target: Man(b1-4)GlcNAc
Summary of the method: as §1

[7] = target: MurNAc(b1-4)GlcNAc
Summary of the method: as §1

[8] = target: Neu5Ac(a2-3)Gal
Summary of the method: as §1

[9] = target: Neu5Ac(a2-3)Gal(b1-3)GalNAc
Summary of the method: as §1

[10] = target: Neu5Ac(a2-3)Gal(b1-3)GalNAc(b1-3)Gal(a1-4)Gal(b1-4)Glc
Summary of the method: as §1

[11] = target: Neu5Ac(a2-3)Gal(b1-3)GalNAc(b1-4)[Neu5Ac(a2-3)]Gal(b1-4)Glc
Summary of the method: as §1

[12] = target: Neu5Ac(a2-3)Gal(b1-3)GalNAc(b1-4)[Neu5Ac(a2-8)Neu5Ac(a2-3)]Gal(b1-4)Glc
Summary of the method: as §1

[13] = target: Neu5Ac(a2-3)Gal(b1-3)GalNAc6S
Summary of the method: as §1

[14] = target: Neu5Ac(a2-3)Gal(b1-3)GlcNAc
Summary of the method: as §1

[15] = target: Neu5Ac(a2-3)Gal(b1-3)GlcNAc(b1-2)Man
Summary of the method: as §1

[16] = target: Neu5Ac(a2-3)Gal(b1-3)GlcNAc(b1-2)Man(a1-3)[GlcNAc(b1-4)][Neu5Ac(a2-3)Gal(b1-3)GlcNAc(b1-2)Man(a1-6)]Man(b1-4)GlcNAc(b1-4)GlcNAc
Summary of the method: as §1

[17] = target: Neu5Ac(a2-3)Gal(b1-3)GlcNAc(b1-2)Man(a1-3)[Neu5Ac(a2-3)Gal(b1-3)GlcNAc(b1-2)Man(a1-6)]Man(b1-4)GlcNAc(b1-4)GlcNAc
Summary of the method: as §1

[18] = target: Neu5Ac(a2-3)Gal(b1-3)GlcNAc(b1-3)Gal(b1-3)GlcNAc
Summary of the method: as §1

[19] = target: Neu5Ac(a2-3)Gal(b1-3)GlcNAc(b1-3)Gal(b1-4)GlcNAc
Summary of the method: as §1

[20] = target: Neu5Ac(a2-3)Gal(b1-3)GlcNAc(b1-3)GalNAc
Summary of the method: as §1

[21] = target: Neu5Ac(a2-3)Gal(b1-3)GlcNAc(b1-4)Gal(b1-4)Glc
Summary of the method: as §1

[22] = target: Neu5Ac(a2-3)Gal(b1-3)GlcNAc(b1-6)GalNAc
Summary of the method: as §1

[23] = target: Neu5Ac(a2-3)Gal(b1-3)GlcNAc6S
Summary of the method: as §1

[24] = target: Neu5Ac(a2-3)Gal(b1-3)[Fuc(a1-4)]GlcNAc
Summary of the method: as §1

[25] = target: Neu5Ac(a2-3)Gal(b1-3)[Fuc(a1-4)]GlcNAc(b1-3)Gal(b1-3)[Fuc(a1-4)]GlcNAc
Summary of the method: as §1

[26] = target: Neu5Ac(a2-3)Gal(b1-3)[Fuc(a1-4)]GlcNAc(b1-3)Gal(b1-4)[Fuc(a1-3)]GlcNAc
Summary of the method: as §1

[27] = target: Neu5Ac(a2-3)Gal(b1-3)[GlcNAc(b1-6)]GalNAc
Summary of the method: as §1

[28] = target: Neu5Ac(a2-3)Gal(b1-3)[Neu5Ac(a2-6)]GalNAc
Summary of the method: as §1

[29] = target: Neu5Ac(a2-3)Gal(b1-3)[Neu5Ac(a2-6)]GlcNAc(b1-3)[Fuc(a1-3)[Gal(b1-4)]GlcNAc(b1-6)]Gal(b1-4)Glc
Summary of the method: as §1

[30] = target: Neu5Ac(a2-3)Gal(b1-3)]Neu5Ac(a2-3)Gal(b1-4)]GlcNAc
Summary of the method: as §1

[31] = target: Neu5Ac(a2-3)Gal(b1-4)Glc
Summary of the method: as §1

[32] = target: Neu5Ac(a2-3)Gal(b1-4)GlcNAc
Summary of the method: as §1

[33] = target: Neu5Ac(a2-3)Gal(b1-4)GlcNAc(b1-2)Man
Summary of the method: as §1

[34] = target: Neu5Ac(a2-3)Gal(b1-4)GlcNAc(b1-2)Man(a1-3)[GlcNAc(b1-4)][Neu5Ac(a2-3)Gal(b1-4)GlcNAc(b1-2)Man(a1-6)]Man(b1-4)GlcNAc(b1-4)GlcNAc
Summary of the method: as §1

[35] = target: Neu5Ac(a2-3)Gal(b1-4)GlcNAc(b1-2)Man(a1-3)[Neu5Ac(a2-3)Gal(b1-4)GlcNAc(b1-2)Man(a1-6)]Man(b1-4)GlcNAc(b1-4)GlcNAc
Summary of the method: as §1

[36] = target: Neu5Ac(a2-3)Gal(b1-4)GlcNAc(b1-2)Man(a1-3)[Neu5Ac(a2-3)Gal(b1-4)GlcNAc(b1-2)Man(a1-6)]Man(b1-4)GlcNAc(b1-4)[Fuc(a1-6)]GlcNAc
Summary of the method: as §1

[37] = target: Neu5Ac(a2-3)Gal(b1-4)GlcNAc(b1-2)Man(a1-3)[Neu5Ac(a2-6)Gal(b1-4)GlcNAc(b1-2)Man(a1-6)]Man(b1-4)GlcNAc(b1-4)GlcNAc
Summary of the method: as §1

[38] = target: Neu5Ac(a2-3)Gal(b1-4)GlcNAc(b1-2)[Neu5Ac(a2-3)Gal(b1-4)GlcNAc(b1-4)]Man(a1-3)[GlcNAc(b1-4)][Neu5Ac(a2-3)Gal(b1-4)GlcNAc(b1-2)[Neu5Ac(a2-3)Gal(b1-4)GlcNAc(b1-6)]Man(a1-6)]Man(b1-4)GlcNAc(b1-4)GlcNAc
Summary of the method: as §1

B1: PV12658A-bvu-496-32-496 (Bacteroides vulgatus) (protein)
chain: DLDGAITTPAAVELALNGIYYSLPGNGFNVIFPTVSGSFKAGTMWRQEIVSAGNAVYYSERMLPTLSFSDATEWDADYAVIKNANFLETACNRMSDGEFSGNRRAEVLGEIAYLRALAYFNILVRYCEFWDMNSEYGVVMRNEAPSVSNALKARSSVADSYQYILDQLEIAIEKAPDWKKLSQASKEAAKALKARVLLYAGKYTEAVAAVNDAIDTNSPLPEANYGDVFDKFSTTKEILFARVFDQKDATNTSTRQQCYGNSPTKKQGYWGPTNEYVELVGDDPRADAIFSKVDSLMDSRSSAVAYNLKSVKKLLNDANDMPVIFSRVSELYLIKAEALYRSGASISEAYAPIRKLRERAGAEIILPANNEELETAIFNEWMLELSFENWHEWFAMIRFAGYTEKPDFTRLLALNKTLREALEKEYEKSEAQGDNYYQRIIDRRIDAIPSSEISSNLECKQNPGY
Question: How did the “glycan array binding signal (z-score)” value [1] turn out when B1 was run?
Answer: The value was 0.601.

Question: And the “glycan array binding signal (z-score)” value [2]?
Answer: Its value is 0.012.

Question: And the “glycan array binding signal (z-score)” value [3]?
Answer: Its value is -0.379.

Question: What about the “glycan array binding signal (z-score)” value [4] of the same binder?
Answer: The value was -0.368.

Question: What about the “glycan array binding signal (z-score)” value [5] of the same binder?
Answer: Its value is 0.173.

Question: What about the “glycan array binding signal (z-score)” value [6] of the same binder?
Answer: The value was 0.232.

Question: What about the “glycan array binding signal (z-score)” value [7] of the same binder?
Answer: The value was -0.29.

Question: And the “glycan array binding signal (z-score)” value [8]?
Answer: The value was -0.374.

Question: What about the “glycan array binding signal (z-score)” value [9] of the same binder?
Answer: Its value is -0.233.

Question: And the “glycan array binding signal (z-score)” value [10]?
Answer: Its value is -0.556.

Question: What about the “glycan array binding signal (z-score)” value [11] of the same binder?
Answer: Its value is 0.026.

Question: What about the “glycan array binding signal (z-score)” value [12] of the same binder?
Answer: Its value is -0.344.

Question: And the “glycan array binding signal (z-score)” value [13]?
Answer: Its value is -0.469.

Question: And the “glycan array binding signal (z-score)” value [14]?
Answer: Its value is -0.343.

Question: And the “glycan array binding signal (z-score)” value [15]?
Answer: Its value is 0.22.

Question: And the “glycan array binding signal (z-score)” value [16]?
Answer: The value was -0.433.

Question: What about the “glycan array binding signal (z-score)” value [17] of the same binder?
Answer: The value was 0.621.

Question: And the “glycan array binding signal (z-score)” value [18]?
Answer: The value was -0.549.

Question: And the “glycan array binding signal (z-score)” value [19]?
Answer: The value was -0.366.

Question: What about the “glycan array binding signal (z-score)” value [20] of the same binder?
Answer: Its value is -0.374.

Question: And the “glycan array binding signal (z-score)” value [21]?
Answer: The value was -0.434.

Question: What about the “glycan array binding signal (z-score)” value [22] of the same binder?
Answer: The value was -0.138.

Question: What about the “glycan array binding signal (z-score)” value [23] of the same binder?
Answer: Its value is 0.152.

Question: And the “glycan array binding signal (z-score)” value [24]?
Answer: Its value is -0.194.

Question: And the “glycan array binding signal (z-score)” value [25]?
Answer: The value was -0.275.

Question: And the “glycan array binding signal (z-score)” value [26]?
Answer: Its value is -0.107.

Question: What about the “glycan array binding signal (z-score)” value [27] of the same binder?
Answer: The value was -0.549.

Question: What about the “glycan array binding signal (z-score)” value [28] of the same binder?
Answer: The value was -0.182.

Question: What about the “glycan array binding signal (z-score)” value [29] of the same binder?
Answer: Its value is -0.429.

Question: What about the “glycan array binding signal (z-score)” value [30] of the same binder?
Answer: Its value is -0.229.

Question: And the “glycan array binding signal (z-score)” value [31]?
Answer: The value was -0.191.

Question: What about the “glycan array binding signal (z-score)” value [32] of the same binder?
Answer: The value was -0.138.

Question: And the “glycan array binding signal (z-score)” value [33]?
Answer: Its value is -0.265.

Question: And the “glycan array binding signal (z-score)” value [34]?
Answer: The value was -0.392.

Question: And the “glycan array binding signal (z-score)” value [35]?
Answer: The value was -0.385.

Question: What about the “glycan array binding signal (z-score)” value [36] of the same binder?
Answer: The value was 0.246.

Question: And the “glycan array binding signal (z-score)” value [37]?
Answer: The value was 0.084.

Question: What about the “glycan array binding signal (z-score)” value [38] of the same binder?
Answer: Its value is -0.385.
